Changes are numbered by the printed parent chain. These are yes or no findings as the source states them, for the method shown. Some binding calls cover weakened binding; strength is not graded here.
B1: 161E5-VH0VL0 (antibody, human IgG1, kappa, V domains shown)
VH: QVQLVQSGAEVKKPGASVKVSCKASGYSFTDYYINWVRQAPGQGLEWMGRIFPGSGNAYYNEKFKDRVTMTRDTSTSTVYMELSSLRSEDTAVYYCARDDSFYGYWYFDVWGQGTTVTVSS
VL: EIVMTQSPATLSVSPGERATLSCKSSQSVLYSSNQKNYLAWYQQKPGQAPRLLIYWASTRESGIPARFSGSGSGTEFTLTISSLQSEDFAVYYCHQYLSSYTFGGGTKVEIKR
B2: 161E5-VH2VL2 (antibody, human IgG1, kappa, V domains shown)
VH: B1 VH with M48I, G49A, V68A, M70L, R72V, T74K, V79A
VL: B1 VL with E1N, V3M, I64V, A66D
B3: 161E5-VH2VL3 (antibody, human IgG1, kappa, V domains shown)
VH: B1 VH with M48I, G49A, V68A, M70L, R72V, T74K, V79A
VL: B1 VL with E1N, V3M, A49S, I64V, A66D
B4: 161E5-VH3VL2 (antibody, human IgG1, kappa, V domains shown)
VH: B1 VH with A40R, M48I, G49A, V68A, M70L, R72V, T74K, V79A, Y95F
VL: B1 VL with E1N, V3M, I64V, A66D
B5: 161E5-VH3VL3 (antibody, human IgG1, kappa, V domains shown)
VH: B1 VH with A40R, M48I, G49A, V68A, M70L, R72V, T74K, V79A, Y95F
VL: B1 VL with E1N, V3M, A49S, I64V, A66D

By UniProt entry, the sequences of proteins in these tests, tags left out. Where a name states a change or a piece, a line headed by the entry shows the natural chain unless it says otherwise. Residues count along the entry.
UniProt Q9D659, residues 33-191: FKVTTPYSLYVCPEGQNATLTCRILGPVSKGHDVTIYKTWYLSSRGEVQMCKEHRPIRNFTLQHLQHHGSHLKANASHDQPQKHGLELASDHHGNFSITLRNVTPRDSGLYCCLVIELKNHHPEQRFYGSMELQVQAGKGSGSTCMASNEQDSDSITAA

The binders below were run against T1, monkey VISTA expressed on HEK293A cells (monkey (cynomolgus)) (assay: FACS on HEK293A/monkey VISTA cells, MFI [panel B]).
T1 sequence: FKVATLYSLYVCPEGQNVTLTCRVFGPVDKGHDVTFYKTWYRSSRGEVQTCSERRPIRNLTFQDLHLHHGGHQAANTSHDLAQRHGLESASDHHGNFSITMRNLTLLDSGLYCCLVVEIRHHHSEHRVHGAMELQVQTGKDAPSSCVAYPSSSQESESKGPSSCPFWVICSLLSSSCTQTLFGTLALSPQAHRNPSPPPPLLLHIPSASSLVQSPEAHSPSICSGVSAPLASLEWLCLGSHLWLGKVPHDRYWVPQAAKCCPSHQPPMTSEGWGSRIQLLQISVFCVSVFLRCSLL

Binder | binding
B1 | binds
B2 | binds
B3 | binds
B4 | binds
B5 | binds

These binders were tested against T1, monkey VISTA expressed on HEK293A cells (monkey (cynomolgus)) (assay: FACS on HEK293A cells (FIG. 5)).

Binder | binding
B1 | binds
B2 | binds
B3 | binds
B4 | binds
B5 | binds

What follows are binders tested against mouse VISTA-his (Sino Biological, Cat #:511550-M08H) (mouse) (UniProt Q9D659) (assay: ELISA, plate coated with mouse VISTA-his, OD450 [panel C]).

Binder | binding
B1 | no binding (tested: about log 4.3 ng/ml (about 20000 ng/ml))
B2 | no binding (tested: about log 4.3 ng/ml (about 20000 ng/ml))
B3 | no binding (tested: about log 4.3 ng/ml (about 20000 ng/ml))
B4 | no binding (tested: about log 4.3 ng/ml (about 20000 ng/ml))
B5 | no binding (tested: about log 4.3 ng/ml (about 20000 ng/ml))

Each binder was assayed against mouse VISTA expressed on HEK293A cells (mouse) (UniProt Q9D659) (assay: FACS on HEK293A/mouse VISTA cells, MFI [panel C]).

Binder | binding
B1 | no binding (tested: log 4 ng/ml (10000 ng/ml))
B2 | no binding (tested: log 4 ng/ml (10000 ng/ml))
B3 | no binding (tested: log 4 ng/ml (10000 ng/ml))
B4 | no binding (tested: log 4 ng/ml (10000 ng/ml))
B5 | no binding (tested: log 4 ng/ml (10000 ng/ml))
